Read-outs that look alike come from different tables or passages of the source.
Key:
[1] = tested on: rice blast fungi (Magnaporthe grisea); type: in vivo; details: for Test A control value: rice blast; for Test A control value class (rice blast): control value=100{1-(n/3)}
[2] = tested on: tomato late blight fungi (Phytophthora infestans); type: in vivo; details: for Test F control value: tomato late blight; for Test F control value class (tomato late blight): control value=100{1-(n/3)}
[3] = tested on: cucumber anthracnose fungi (Colletotrichum orbiculare); experiment: Test Example H: cucumber anthracnose, spray treatment of cucumber plants; details: for Test H control value: cucumber anthracnose, 6 to 10 days after inoculation; for Test H control value class (cucumber anthracnose): 2.5 ml/pot, cucumber Sagami Hanjiro, 6 to 10 days from inoculation
[4] = spray treatment of tomato plants

| SMILES | Test A control value ([1]; spray treatment of rice plants) | Test F control value [2, 4] | Test H control value ([3]; 250 ppm spray (2.5 ml/pot)) | Test A control value ([1]; spray treatment) | Test F control value ([2]; spray treatment) | Test H control value ([3]; 250 ppm spray) | other results |
| --- | --- | --- | --- | --- | --- | --- | --- |
| C#CCn1cc(C)c(=O)c(C)c1-c1c(F)cc(F)cc1F [Compound 267] | L (L shows the control value of 50% or less) | L (L shows the control value of 50% or less) | H (H shows the control value of more than 50%) | – | – | – | – |
| CCc1c(-c2ccc(F)cc2F)n(-c2ccccc2)cc(Br)c1=O [Compound 597] | – | – | – | H (H shows the control value of more than 50%) | L (L shows the control value of 50% or less) | H (H shows the control value of more than 50%) | – |
| Cc1ccc([N+](=O)[O-])cc1-n1cc(Br)c(=O)c(Cl)c1-c1c(F)cc(F)cc1F [Compound 324] | H (H shows the control value of more than 50%) | H (H shows the control value of more than 50%) | H (H shows the control value of more than 50%) | – | – | – | – |
| C#CCOc1ccc(C)c(-n2cc(Br)c(=O)c(Cl)c2-c2c(F)cccc2F)c1 [Compound 429] | – | – | – | H (H shows the control value of more than 50%) | L (L shows the control value of 50% or less) | H (H shows the control value of more than 50%) | – |
| CC1CCCCC1n1cc(Br)c(=O)c(Br)c1-c1c(F)cc(F)cc1F (stereo not drawn) [Compound 160] | – | – | – | – | – | – | Test A control value class (rice blast) ([1]; spray treatment of rice plants): L (L shows the control value of 50% or less); Test F control value class (tomato late blight) [2, 4]: L (L shows the control value of 50% or less); Test H control value class (cucumber anthracnose) ([3]; 250 ppm spray): L (L shows the control value of 50% or less) |
| Cc1c(-c2ccccc2)n(-c2ccccc2Cl)cc(Br)c1=O [Compound 387] | – | – | – | H (H shows the control value of more than 50%) | L (L shows the control value of 50% or less) | H (H shows the control value of more than 50%) | – |
| Cc1c(-n2cc(Br)c(=O)c(Cl)c2-c2c(F)cc(F)cc2F)cccc1C(F)(F)F [Compound 364] | H (H shows the control value of more than 50%) | L (L shows the control value of 50% or less) | H (H shows the control value of more than 50%) | – | – | – | – |
| Cc1cccc(F)c1-n1cc(Cl)c(=O)c(Cl)c1-c1ccc(F)cc1 [Compound 369] | L (L shows the control value of 50% or less) | L (L shows the control value of 50% or less) | H (H shows the control value of more than 50%) | – | – | – | – |
| CCc1ccc(O)cc1-n1cc(C)c(=O)c(C)c1-c1c(F)cccc1F [Compound 618] | – | – | – | H (H shows the control value of more than 50%) | L (L shows the control value of 50% or less) | L (L shows the control value of 50% or less) | – |
| Cc1cn(CC#N)c(-c2c(F)cc(F)cc2F)c(C)c1=O [Compound 255] | L (L shows the control value of 50% or less) | L (L shows the control value of 50% or less) | L (L shows the control value of 50% or less) | – | – | – | – |
| Cc1c(N(C)C)cccc1-n1cc(Br)c(=O)c(Cl)c1-c1c(F)cc(F)cc1F [Compound 335] | H (H shows the control value of more than 50%) | L (L shows the control value of 50% or less) | L (L shows the control value of 50% or less) | – | – | – | – |
| COc1cc(F)c(-c2c(Br)c(=O)c(Br)cn2-c2ccccc2F)c(F)c1 [Compound 23] | – | – | – | – | – | – | Test A control value class (rice blast) ([1]; spray treatment of rice plants): H (H shows the control value of more than 50%); Test F control value class (tomato late blight) [2, 4]: L (L shows the control value of 50% or less); Test H control value class (cucumber anthracnose) ([3]; 250 ppm spray): H (H shows the control value of more than 50%) |
| CCc1c(-c2c(F)cc(F)cc2F)n(-c2cc(F)ccc2C)cc(Br)c1=O [Compound 521] | – | – | – | H (H shows the control value of more than 50%) | L (L shows the control value of 50% or less) | H (H shows the control value of more than 50%) | – |
| CCc1c(-c2c(F)cccc2F)n(-c2cc(F)ccc2C)cc(C)c1=O [Compound 542] | – | – | – | L (L shows the control value of 50% or less) | L (L shows the control value of 50% or less) | L (L shows the control value of 50% or less) | – |
| Cc1cn(CC(C)C)c(-c2c(F)cc(F)cc2F)c(C)c1=O [Compound 245] | H (H shows the control value of more than 50%) | L (L shows the control value of 50% or less) | H (H shows the control value of more than 50%) | – | – | – | – |
| COc1ccc(C)c(-n2cc(Br)c(=O)c(Cl)c2-c2c(F)cc(F)cc2F)c1 [Compound 217, 5-bromo-3-chloro-1-(5-methoxy-2-methylphenyl)-2-(2,4,6-trifluorophenyl)pyridin-4(1H)-one] | H (H shows the control value of more than 50%) | L (L shows the control value of 50% or less) | H (H shows the control value of more than 50%) | – | – | – | – |

| SMILES | Test A control value ([1]; spray treatment of rice plants) | Test F control value [2, 4] | Test H control value ([3]; 250 ppm spray (2.5 ml/pot)) | Test A control value ([1]; spray treatment) | Test F control value ([2]; spray treatment) | Test H control value ([3]; 250 ppm spray) | other results |
| --- | --- | --- | --- | --- | --- | --- | --- |
| Cc1c(-n2cc(Br)c(=O)c(Br)c2-c2c(F)cc(F)cc2F)cccc1[N+](=O)[O-] [Compound 321] | H (H shows the control value of more than 50%) | L (L shows the control value of 50% or less) | L (L shows the control value of 50% or less) | – | – | – | – |
| Cc1cn(-c2ccccc2Br)c(-c2c(F)cc(F)cc2F)c(C)c1=O [Compound 453] | – | – | – | H (H shows the control value of more than 50%) | L (L shows the control value of 50% or less) | H (H shows the control value of more than 50%) | – |
| O=c1c(Br)cn(-c2ccccc2)c(-c2ccccc2Br)c1Cl [Compound 576] | – | – | – | L (L shows the control value of 50% or less) | L (L shows the control value of 50% or less) | H (H shows the control value of more than 50%) | – |
| Cc1ccc(Cl)cc1-n1cc(Cl)c(=O)c(Br)c1-c1c(F)cc(F)cc1F [Compound 240] | H (H shows the control value of more than 50%) | L (L shows the control value of 50% or less) | H (H shows the control value of more than 50%) | – | – | – | – |
| CC(=O)Oc1cc(F)c(-c2c(C)c(=O)c(C)cn2-c2cc(C)ccc2C)c(F)c1 [Compound 407] | – | – | – | L (L shows the control value of 50% or less) | L (L shows the control value of 50% or less) | L (L shows the control value of 50% or less) | – |
| CCCCn1cc(Br)c(=O)c(Cl)c1-c1c(F)cc(F)cc1F [Compound 233] | H (H shows the control value of more than 50%) | L (L shows the control value of 50% or less) | H (H shows the control value of more than 50%) | – | – | – | – |
| CCc1ccccc1-n1cc(Br)c(=O)c(CC)c1-c1ccccc1 [Compound 498] | – | – | – | H (H shows the control value of more than 50%) | L (L shows the control value of 50% or less) | L (L shows the control value of 50% or less) | – |
| Cc1c(Cl)cccc1-n1cc(C)c(=O)c(C)c1-c1c(F)cccc1F [Compound 494] | – | – | – | H (H shows the control value of more than 50%) | L (L shows the control value of 50% or less) | H (H shows the control value of more than 50%) | – |
| Cc1c(F)cccc1-n1cc(C)c(=O)c(C)c1-c1ccccc1 [Compound 483] | – | – | – | L (L shows the control value of 50% or less) | L (L shows the control value of 50% or less) | H (H shows the control value of more than 50%) | – |
| COc1ccc(-c2c(C)c(=O)c(C)cn2-c2ccccc2C)cc1 [Compound 242] | H (H shows the control value of more than 50%) | H (H shows the control value of more than 50%) | H (H shows the control value of more than 50%) | – | – | – | – |
| CCc1c(-c2c(F)cc(F)cc2F)n(CC(C)C)cc(Br)c1=O [Compound 220] | H (H shows the control value of more than 50%) | L (L shows the control value of 50% or less) | H (H shows the control value of more than 50%) | – | – | – | – |
| CCc1c(-c2c(F)cccc2F)n(-c2cc(Cl)ccc2C)cc(C)c1=O [Compound 536] | – | – | – | L (L shows the control value of 50% or less) | L (L shows the control value of 50% or less) | H (H shows the control value of more than 50%) | – |
| CCC(C)Cn1cc(Cl)c(=O)c(Br)c1-c1c(F)cc(F)cc1F (stereo not drawn) [Compound 165] | – | – | – | – | – | – | Test A control value class (rice blast) ([1]; spray treatment of rice plants): H (H shows the control value of more than 50%); Test F control value class (tomato late blight) [2, 4]: H (H shows the control value of more than 50%); Test H control value class (cucumber anthracnose) ([3]; 250 ppm spray): H (H shows the control value of more than 50%) |
| O=c1c(Br)cn(-c2cc(F)ccc2Cl)c(-c2ccccc2)c1Br [Compound 418] | – | – | – | L (L shows the control value of 50% or less) | L (L shows the control value of 50% or less) | H (H shows the control value of more than 50%) | – |
| COc1cc(-n2cc(Br)c(=O)c(Cl)c2-c2ccccc2)c(C)cc1Br [Compound 414] | – | – | – | L (L shows the control value of 50% or less) | L (L shows the control value of 50% or less) | L (L shows the control value of 50% or less) | – |
| CCc1ccccc1-n1cc(Br)c(=O)c(Br)c1-c1c(F)cc(F)cc1F [Compound 352] | H (H shows the control value of more than 50%) | L (L shows the control value of 50% or less) | H (H shows the control value of more than 50%) | – | – | – | – |
